Reference: publication PMC6919601, “Identification of Plasmodium dipeptidyl aminopeptidase allosteric inhibitors by high throughput screening” (PLoS ONE, 2019)
The campaign covered roughly 110,000 compounds. About 230 (0.21%) showed an effect of 50% or more. Some of the results follow.

Biological target: DPAP1 (Plasmodium falciparum, UniProt Q8IIJ9)
Assay: primary screen, percent inhibition; read by cleavage of a fluorogenic dipeptide substrate; higher = more effect of the substance
Design: species or system P. falciparum D10 trophozoite lysates; single well
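Note: 30 min substrate incubation versus DMSO and 10 µM JCP410 controls.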

Sequence of DPAP1 (Q8IIJ9 whole entry, looked up): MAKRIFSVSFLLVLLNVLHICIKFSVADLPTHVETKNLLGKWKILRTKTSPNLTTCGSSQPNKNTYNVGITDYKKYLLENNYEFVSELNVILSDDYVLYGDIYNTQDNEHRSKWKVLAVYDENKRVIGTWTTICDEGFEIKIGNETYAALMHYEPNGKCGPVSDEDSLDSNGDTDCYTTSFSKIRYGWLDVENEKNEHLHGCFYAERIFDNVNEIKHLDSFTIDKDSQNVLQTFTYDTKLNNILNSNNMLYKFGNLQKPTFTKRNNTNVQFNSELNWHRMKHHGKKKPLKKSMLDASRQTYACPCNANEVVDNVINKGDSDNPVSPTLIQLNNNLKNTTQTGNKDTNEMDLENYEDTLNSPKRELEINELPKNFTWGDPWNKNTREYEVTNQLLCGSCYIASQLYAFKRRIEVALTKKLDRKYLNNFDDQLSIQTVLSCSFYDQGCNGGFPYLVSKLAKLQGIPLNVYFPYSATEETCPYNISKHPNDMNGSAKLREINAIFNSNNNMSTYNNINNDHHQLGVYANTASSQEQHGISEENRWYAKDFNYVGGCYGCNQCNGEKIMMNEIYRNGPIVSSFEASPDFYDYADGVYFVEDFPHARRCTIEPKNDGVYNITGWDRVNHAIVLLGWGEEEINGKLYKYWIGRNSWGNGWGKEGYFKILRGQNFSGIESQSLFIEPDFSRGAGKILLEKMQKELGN

Row | Structure (SMILES) | % Inhibition @ 10 uM [%]
1 | Cc1cc(O)nc(SCC(=O)Nc2cc(Cl)ccc2C)n1 | 5.84
2 | Cc1cccc(NC(=O)CSc2nc(-c3cccs3)cc(C(F)(F)F)c2C#N)n1 | 18.3
3 | COc1ccccc1C(=O)Nc1c(C)nn(Cc2ccc(C)cc2)c1C | -10.5
4 | O=C(CCc1nnc2n(Cc3ccccc3)c(=O)c3ccccc3n12)N1CCN(c2ccccn2)CC1 | -0.692
5 | O=c1c2nnn(Cc3ccccc3F)c2ncn1Cc1cccc(F)c1 | -7.71
6 | Cc1nc(NC(=O)c2cccc(OC(C)C)c2)ccc1Br | 3.81
7 | COc1ccccc1CN1C(=O)c2cccc(N)c2C1=O | -1.57
8 | CCn1ncc(C(=O)Nc2ccc(C)cc2C)c1C | 2.79
9 | Cc1cc(C)n(-c2cc(-c3ccccc3)nc(-c3ccccc3)n2)n1 | -2.35
10 | COc1cc(S(=O)(=O)N2CCCCC2)ccc1/N=C/c1c(C)nn(-c2ccc(C)c(C)c2)c1O | 1.02
11 | CC(C)C(=O)Nc1scc(-c2ccccc2)c1C(=O)O | -3.98
12 | COc1ccc(OC)c(NC(=O)c2ccc(CSc3ncnc4[nH]cnc34)cc2)c1 | 2.5
13 | Cc1ccc(CN2CCCC(O)C2)c(C)c1 (stereo not shown) | -1.93
14 | O=C(CCCOc1ccc(Cl)cc1Cl)NC1CCCC1 | 0.815
15 | O=C(CCCn1c(=O)c2cccn2c2cccnc21)NC1CCN(Cc2ccccc2)CC1 | 2.03
16 | Cc1ccc(CCNC(=O)c2nnc(-c3cccnc3)o2)cc1 | 3.5
17 | Cc1sc(NC(=O)CSc2nnc3c4ccccc4n(C)c3n2)nc1-c1ccccc1 | -3.87
18 | Cc1ccc(C2C(=O)c3ccccc3C2=O)cc1 | -3.38
19 | COc1ccc(C2C(=O)N(C3CCCCC3)CC(=O)N2CC2COc3ccccc3O2)cc1 (stereo not shown) | -2.26
20 | N#CC1=C(N)Oc2ccc3ccccc3c2C1c1cccc(F)c1 (stereo not shown) | -0.294
21 | CN(C)CCN(C)Cc1cccc(Br)c1 | 0.526
22 | C=CCSc1nc2nc3c(cc2c(=O)n1CC=C)CC(C)(C)OC3 | -2.37
23 | NC(=O)c1c(NC(=O)Nc2ccccc2)sc2c1CCCCCC2 | 9.97
24 | CCCN(CCC)S(=O)(=O)c1ccc(NC(=O)C2CCCCC2)cc1 | -1.63
25 | N#C/C(=C\c1ccc(-c2cccc(C(=O)O)c2)o1)c1nc2ccccc2[nH]1 | 35
26 | CC(=O)c1ccc(NC(=O)c2ccc(Br)o2)cc1 | -4.15
27 | CCCN1CCC2(CC1)NC(C(=O)O)Cc1c2[nH]c2ccccc12 (stereo not shown) | 5.03
28 | NC1=NC(=O)/C(=C\c2ccccc2Br)S1 | -1.85
